{
  "source": "paper PMC4336329",
  "about": "(PLoS ONE, 2015)",
  "note": "Hit rate of the full screen: of about 310,000 compounds, about 14,000 (4.5%) showed an effect of 50% or more. Effects have a minus sign here. The list shows a part of the results.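 Note: peak tail current of the secondary pulse compared with the same well before compound.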",
  "data": [
    {"target": "human ether-à-go-go-related gene (hERG) potassium channel (human, UniProt Q12809)", "sequence (Q12809 whole entry, looked up)": "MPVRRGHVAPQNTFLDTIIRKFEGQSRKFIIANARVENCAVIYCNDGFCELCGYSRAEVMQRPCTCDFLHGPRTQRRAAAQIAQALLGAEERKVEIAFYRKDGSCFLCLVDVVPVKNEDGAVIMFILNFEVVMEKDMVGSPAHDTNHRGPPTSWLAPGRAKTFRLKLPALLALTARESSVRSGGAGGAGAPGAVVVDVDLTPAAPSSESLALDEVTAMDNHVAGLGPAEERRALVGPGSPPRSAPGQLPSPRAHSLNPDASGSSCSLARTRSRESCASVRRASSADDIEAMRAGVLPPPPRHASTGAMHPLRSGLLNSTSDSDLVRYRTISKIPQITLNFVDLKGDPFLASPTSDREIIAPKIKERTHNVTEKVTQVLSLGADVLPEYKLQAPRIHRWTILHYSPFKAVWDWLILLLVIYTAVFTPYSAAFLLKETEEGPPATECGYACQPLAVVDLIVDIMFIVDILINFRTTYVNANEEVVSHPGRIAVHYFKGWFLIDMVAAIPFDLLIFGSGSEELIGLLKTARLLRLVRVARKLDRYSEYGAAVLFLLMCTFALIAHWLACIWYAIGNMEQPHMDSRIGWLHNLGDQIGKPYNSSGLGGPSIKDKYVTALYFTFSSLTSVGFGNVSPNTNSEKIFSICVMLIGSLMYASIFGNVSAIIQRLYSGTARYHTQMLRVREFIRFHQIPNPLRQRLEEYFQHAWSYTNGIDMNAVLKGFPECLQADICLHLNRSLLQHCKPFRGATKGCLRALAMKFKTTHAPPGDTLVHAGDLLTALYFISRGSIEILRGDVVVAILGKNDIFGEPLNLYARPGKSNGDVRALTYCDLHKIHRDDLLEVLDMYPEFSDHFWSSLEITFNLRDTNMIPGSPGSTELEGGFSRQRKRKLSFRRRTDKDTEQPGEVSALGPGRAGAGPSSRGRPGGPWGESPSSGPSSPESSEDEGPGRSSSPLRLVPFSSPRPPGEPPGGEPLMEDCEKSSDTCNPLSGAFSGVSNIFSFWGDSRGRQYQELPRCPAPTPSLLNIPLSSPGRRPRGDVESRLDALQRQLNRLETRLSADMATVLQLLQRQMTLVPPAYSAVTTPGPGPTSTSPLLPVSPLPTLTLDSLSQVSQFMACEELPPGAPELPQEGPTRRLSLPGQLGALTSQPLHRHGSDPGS", "experiment": "primary screen, population patch clamp on CHO cells stably expressing hERG", "units": {"hERG current change (%, negative = inhibition) at 10uM": "%"}, "values": [
      {"smiles": "O=C(NCC(=O)N(Cc1cccs1)C(C(=O)NC1CCCC1)c1ccco1)c1cccs1", "note": "(centres unmarked)", "hERG current change (%, negative = inhibition) at 10uM": -1.01},
      {"smiles": "CCN(CC)C(=O)c1sc2nc(-c3ccc(OC)cc3)cn2c1C", "hERG current change (%, negative = inhibition) at 10uM": -13.2},
      {"smiles": "COc1ccc(C(=O)CCS(=O)(=O)c2ccc(C)cc2)cc1OC", "hERG current change (%, negative = inhibition) at 10uM": -0.0136},
      {"smiles": "COC(=O)C(O)(c1ccc(NC(=O)c2cccs2)c(C)c1)C(F)(F)F", "note": "(centres unmarked)", "hERG current change (%, negative = inhibition) at 10uM": -4.09},
      {"smiles": "Cl.NC(CCCCc1ccccc1)c1cccc2ccccc12", "note": "(centres unmarked)", "hERG current change (%, negative = inhibition) at 10uM": -11.9},
      {"smiles": "Cc1ccc(Cl)cc1N1CCN(S(=O)(=O)c2cnc[nH]2)CC1", "hERG current change (%, negative = inhibition) at 10uM": -3.52},
      {"smiles": "NNC(=O)CN1CCCc2ccccc21", "hERG current change (%, negative = inhibition) at 10uM": 28.3},
      {"smiles": "COCCNc1nc(-c2ccccc2)nc2c1oc1ccccc12.Cl", "hERG current change (%, negative = inhibition) at 10uM": -6.3},
      {"smiles": "O=C(c1ccccc1)N(Nc1ccccc1)c1ccccc1", "hERG current change (%, negative = inhibition) at 10uM": 1.78},
      {"smiles": "N/C(=N\\OC(=O)N1c2ccccc2Sc2ccccc21)c1ccc(Br)cc1", "hERG current change (%, negative = inhibition) at 10uM": 5.79},
      {"smiles": "Cc1ccc(C(=O)N2CCCC(c3nc4c(nnn4Cc4ccccc4)c(=O)[nH]3)C2)cc1", "note": "(centres unmarked)", "hERG current change (%, negative = inhibition) at 10uM": -62.4},
      {"smiles": "Cc1cccc(CS(=O)(=O)Cc2ccc(C(=O)NC(C)c3ccccc3)o2)c1", "note": "(centres unmarked)", "hERG current change (%, negative = inhibition) at 10uM": -17.6},
      {"smiles": "O=C(Nc1ccc(N2CCOCC2)cc1)c1nc2ccccc2s1", "hERG current change (%, negative = inhibition) at 10uM": -9.87},
      {"smiles": "C/C(=N/NS(=O)(=O)c1ccc(C)cc1)c1c[nH]c2ccccc12", "hERG current change (%, negative = inhibition) at 10uM": 10.5},
      {"smiles": "CCCN1C2CCCC1CC(NC(=O)c1ccccc1OC)C2", "note": "(centres unmarked)", "hERG current change (%, negative = inhibition) at 10uM": -3.42},
      {"smiles": "O=C1NC2(CCCCCC2)N=C1c1ccc(F)cc1", "hERG current change (%, negative = inhibition) at 10uM": 5.29},
      {"smiles": "N#CC1=C(N)N(c2ccccc2)C(=O)C1", "hERG current change (%, negative = inhibition) at 10uM": 11.7},
      {"smiles": "Cc1ccc(S(=O)(=O)Nc2ccc(C(=O)OCC(=O)N(CCC#N)c3ccccc3)cc2)cc1C", "hERG current change (%, negative = inhibition) at 10uM": -8.85},
      {"smiles": "COCCn1c(COc2ccc(Cl)cc2)nnc1SCC(N)=O", "hERG current change (%, negative = inhibition) at 10uM": -8.61},
      {"smiles": "COC(=O)c1ccc(=O)n(-c2ccc(OC)cc2)c1", "hERG current change (%, negative = inhibition) at 10uM": 14.8},
      {"smiles": "Cc1nn(Cc2ccccc2)c2ncccc12", "hERG current change (%, negative = inhibition) at 10uM": 20.7},
      {"smiles": "COc1cccc(CN(C)C(=O)COc2ccc(C(=O)c3ccc(Cl)cc3)cc2)c1OC", "hERG current change (%, negative = inhibition) at 10uM": -14.1},
      {"smiles": "CCOc1ccc(-n2c(SCC(=O)NCc3ccco3)nnc2-c2c[nH]c3ccccc23)cc1", "hERG current change (%, negative = inhibition) at 10uM": -46.3},
      {"smiles": "COc1ccccc1NC(=O)Cn1cnc2sc(C)c(S(=O)(=O)N3CCCCC3)c2c1=O", "hERG current change (%, negative = inhibition) at 10uM": 14.1},
      {"smiles": "CC(=O)Oc1ccc(C(c2ccc(OC(C)=O)cc2)c2ccccn2)cc1", "hERG current change (%, negative = inhibition) at 10uM": 1.2},
      {"smiles": "O=C1C(Cl)=C(N2CCCCCC2)C(=O)N1c1ccccc1Cl", "hERG current change (%, negative = inhibition) at 10uM": 7.76},
      {"smiles": "O=C(O)CCCn1cc(NC(=O)c2ccc(Br)o2)cn1", "hERG current change (%, negative = inhibition) at 10uM": 3.16},
      {"smiles": "O=C(c1ccc2nc[nH]c2c1)N1CCN(c2cccc(Cl)c2)CC1", "hERG current change (%, negative = inhibition) at 10uM": -4.43},
      {"smiles": "CCOC(=O)c1cc2sc(C)cc2n1CC(=O)NCc1ccc(F)cc1", "hERG current change (%, negative = inhibition) at 10uM": -2.17},
      {"smiles": "CN1CCN(C(=O)CCN2C(=O)c3ccccc3S2(=O)=O)CC1.Cl", "hERG current change (%, negative = inhibition) at 10uM": 6.77},
      {"smiles": "CC(C(=O)O)n1c(-c2ccn[nH]2)n[nH]c1=S", "note": "(centres unmarked)", "hERG current change (%, negative = inhibition) at 10uM": 37.3},
      {"smiles": "Cc1nc(-c2cc(-c3nc(-c4ccc(C(C)(C)C)cc4)no3)no2)cs1", "hERG current change (%, negative = inhibition) at 10uM": 17.1},
      {"smiles": "CS(=O)(=O)Nc1ccc(N2CCN(c3ccc(C(F)(F)F)cn3)CC2)nc1", "hERG current change (%, negative = inhibition) at 10uM": -4.03},
      {"smiles": "CS(=O)(=O)CC(=O)Nc1ccc2nc3n(c(=O)c2c1)CCCCC3", "hERG current change (%, negative = inhibition) at 10uM": 8},
      {"smiles": "Cc1cc(Cl)ccc1C(=O)C1CCCN(C(=O)c2cccnc2C)C1", "note": "(centres unmarked)", "hERG current change (%, negative = inhibition) at 10uM": -37},
      {"smiles": "CC12CC3CC(C)(C1)CC(CN1CCOCC1)(C3)C2.Cl", "hERG current change (%, negative = inhibition) at 10uM": -0.276},
      {"smiles": "CC(C)C(=O)Nc1nc(-c2ccccc2)ns1", "hERG current change (%, negative = inhibition) at 10uM": -14.5},
      {"smiles": "CCOC(=O)C1=NNC2(c3ccc(Cl)cc3)C(=O)N(c3cc(C)cc(C)c3)C(=O)C12", "note": "(centres unmarked)", "hERG current change (%, negative = inhibition) at 10uM": -14.8},
      {"smiles": "CCOc1ccc(N(C(=O)c2ccc3c(c2)OCO3)C2C=CS(=O)(=O)C2)cc1", "note": "(centres unmarked)", "hERG current change (%, negative = inhibition) at 10uM": -24.1},
      {"smiles": "Cc1c(C(=O)N2CCN(C)CC2)oc2ccc(S(=O)(=O)N3CCOCC3)cc12", "hERG current change (%, negative = inhibition) at 10uM": 6.09},
      {"smiles": "COC(=O)Nc1ccc(S(=O)(=O)N2CCC(C(=O)NC3CCCCC3)CC2)cc1", "hERG current change (%, negative = inhibition) at 10uM": 18.6},
      {"smiles": "CCOc1ccc(N(CC(=O)Nc2ccccc2C(=O)N2CCCC2)S(C)(=O)=O)cc1", "hERG current change (%, negative = inhibition) at 10uM": 2.43},
      {"smiles": "Cc1nc2cc(C(F)(F)F)ccc2n1C1CCN(Cc2nnnn2Cc2cccs2)CC1", "hERG current change (%, negative = inhibition) at 10uM": -36.6},
      {"smiles": "CCOC(=O)c1cnc2ccc(C)cc2c1Sc1ccc(F)cc1", "hERG current change (%, negative = inhibition) at 10uM": -1.1}
    ]}
  ]
}
